The source gives no read counts; variants with many changes may rest on few reads.
B1: LINE1-mini (parent)
chain: GGCAGAGCUCAACACAGCGUGGCAAAGUGGCUGUGGCUAGACUGCC

Variants of: B1
Assay: self-cleavage, relative activity (ratio to wild type); higher = more cleavage; in vitro, sequencing; the parent is a self-cleaving ribozyme

Q: With GGCAGAGCUCAUCACAGCGUGGCAAAGUGGCUGAGUCUAGACUGCC as the variant, how does the self-cleavage read?
A: Its self-cleavage is 0.01.

Q: For GGCAGAGCUCAUCACAGCGUGGCAAAGUGGCUGCGGCUAGACAGCC, which self-cleavage is on record?
A: The self-cleavage was 0.04.

Q: Which self-cleavage does the source give for GGCAGAGCUCAUCACAGCGUGGCAAAGUGGCUGGGGCUAAACUGCC here?
A: Its self-cleavage is 0.01.

Q: For GGCAGAGCUCAUCACAGCGUGGCAAAGUGGCUGUGGCAAUACUGCC, which self-cleavage is on record?
A: Its self-cleavage is 0.25.

Q: Which self-cleavage does the source give for GGCAGAGCUCAUCACAGCGUGGCAAAGUGGCUGUGGCCAGACGGCC here?
A: The self-cleavage was 0.

Q: Which self-cleavage does the source give for GGCAGAGCUCAAACCAGCGUGGCAAAGUGGCUGUGGCUAGGCUGCC here?
A: Its self-cleavage is 0.07.

Q: With GGCAGAGCUCAAACCAGCGUGGCAAAGUGGUUGUGGCUAGACUGAC as the variant, how does the self-cleavage read?
A: The self-cleavage was 0.05.

Q: With GGCAGAGCUCAAACCAGCAUGGCAAUGUGGCUGUGUCUAGACUGCC as the variant, how does the self-cleavage read?
A: Its self-cleavage is 0.15.

Q: For GGCAGAGCUCAAACCAGCGUAGCAAAGUGGCUGUGGCUAGACUGCC, which self-cleavage is on record?
A: Its self-cleavage is 0.07.

Q: With GGCAGAGCUCAAACCAGCGUAGCAAAGUGGCUGUGGCUAGCCUGCC as the variant, how does the self-cleavage read?
A: Its self-cleavage is 0.03.

Q: For GGCAGAGCUCAAAGCAGCGUGGCAAAGUGGCUGUGGCUAGUCUGCC, which self-cleavage is on record?
A: The self-cleavage was 0.13.

Q: Which self-cleavage does the source give for GGCAGAGCUCAAAGCAGCGUGGAAAAGUGGCUGUGGCUAGACUGCA here?
A: Its self-cleavage is 0.03.

Q: Which self-cleavage does the source give for GGCAGAGCUCAAAGCAGCGUGGCAAAGUGGCUGUGGCUAGACUGAC here?
A: Its self-cleavage is 0.04.

Q: With GGCAGAGCUCAAAGCAGCGUGGCAAAGUGGCUGUAGCUAGACUGCG as the variant, how does the self-cleavage read?
A: Its self-cleavage is 0.08.

Q: Which self-cleavage does the source give for GGCAGAGCUCAAAGCAGCGUGGCAAAGUGGCUGUCGCUAGACUGCC here?
A: The self-cleavage was 0.16.

Q: With GGCAGAGCUCAAAUCAGCGUGGCAGAGUGGCUGUGGCUAGACUGCC as the variant, how does the self-cleavage read?
A: Its self-cleavage is 0.23.

Q: With GGCAGAGCUCAAAUCAGCGUCACAAAGUGGGUGUGGCUAUACUGCC as the variant, how does the self-cleavage read?
A: Its self-cleavage is 0.06.

Q: For GGCAGAGCUCAAAUCAGCGUGGCAAAGUUGCUGUGGUUAGAUUGCC, which self-cleavage is on record?
A: Its self-cleavage is 0.21.

Q: For GGCAGAGCUCAAAUCAGCGUGGCAAAGUGGCUGUGGCUAGACUUCC, which self-cleavage is on record?
A: Its self-cleavage is 0.07.

Q: Which self-cleavage does the source give for GGCAGAGCUCAAAUCAGCGAGGCAAAGUGGCUGUGGCUAGACUGCC here?
A: The self-cleavage was 0.08.

Q: For GGCAGAGCUCAAAACCGCGUGGAAUAGUGGCUGUGGCUAGACUGCC, which self-cleavage is on record?
A: Its self-cleavage is 0.04.

Q: Which self-cleavage does the source give for GGCAGAGCUCAAAACCGCGUGGCAAAGUGUGUGUGGCUAGACUGCC here?
A: Its self-cleavage is 0.04.

Q: Which self-cleavage does the source give for GGCAGAGCUCAAAACGGAGUGGCAAAGUGGCUGUGGCUAGACUGCC here?
A: The self-cleavage was 0.03.

Q: Which self-cleavage does the source give for GGCAGAGCUCAAAACGGCAUGGCAAAGUAGCUGAGGCUAGACUCCC here?
A: The self-cleavage was 0.

Q: Which self-cleavage does the source give for GGCAGAGCUCAAAACGGCGUGGCAAAAUGGCUGUGGCUAGACAGCC here?
A: Its self-cleavage is 0.02.

Q: With GGCAGAGCUCAAAACUGCGUGGCAACGGGGAUGUGGCUAGACUGCC as the variant, how does the self-cleavage read?
A: The self-cleavage was 0.06.

Q: With GGCAGAGCUCAAAACUGCGUGGCAAAGUGGCUGAGGCUAAACUGCC as the variant, how does the self-cleavage read?
A: The self-cleavage was 0.05.

Q: For GGCAGAGCUCAAAACAGCGUGGCCAAGUGGCUGUGGCUAAACUGCC, which self-cleavage is on record?
A: Its self-cleavage is 0.03.

Q: With GGCAGAGCUCAAAACAGCGUGGCUAAGUGGCUGUGGCUAGACUGAC as the variant, how does the self-cleavage read?
A: The self-cleavage was 0.01.

Q: Which self-cleavage does the source give for GGCAGAGCUCAAAACAGCGUGGCUAAGUGGCUGUGGCUACACUGCC here?
A: Its self-cleavage is 0.01.

Q: For GGCAGAGCUCAAAACAGCGUGGCACAGUGGCUGUGGCUAGGCUACC, which self-cleavage is on record?
A: Its self-cleavage is 0.01.

Q: Which self-cleavage does the source give for GGCAGAGCUCAAAACAGCGUGGCACAGUUGCUGUGGCUAGACUGGC here?
A: Its self-cleavage is 0.02.

Q: With GGCAGAGCUCAAAACAGCGUGGCAGACUGGCUGUGGCUAGACUGCC as the variant, how does the self-cleavage read?
A: Its self-cleavage is 0.07.

Q: Which self-cleavage does the source give for GGCAGAGCUCAAAACAGCGUGGCAACGUGGGUGGGGCUAGACUGCC here?
A: The self-cleavage was 0.05.

Q: Which self-cleavage does the source give for GGCAGAGCUCAAAACAGCGUGGCAACGUGGCUUUGGCUAGACUGCC here?
A: Its self-cleavage is 0.1.

Q: For GGCAGAGCUCAAAACAGCGUGGCAACGUGGCUGGGGCUAGACUGCC, which self-cleavage is on record?
A: The self-cleavage was 0.03.

Q: Which self-cleavage does the source give for GGCAGAGCUCAAAACAGCGUGGCAAGGUGGGUGUGGCUAGACUGCC here?
A: The self-cleavage was 0.04.

Q: For GGCAGAGCUCAAAAAAACGUGGCAAAGUGCCUGUGGCUUGACUGCC, which self-cleavage is on record?
A: The self-cleavage was 0.03.

Q: With GGCAGAGCUCAAAAAAGCGCGGCACCGUGGCUGAGGCUAGACUGCC as the variant, how does the self-cleavage read?
A: The self-cleavage was 0.03.

Q: With GGCAGAGCUCAAAAAAGCGUGGCAAAGCGGCUGAGGCUAGACUGCC as the variant, how does the self-cleavage read?
A: The self-cleavage was 0.08.

Q: Which self-cleavage does the source give for GGCAGAGCUCAAAAGAGCGUGGCCAAGUGGCUGUGGCUCGACUGCC here?
A: The self-cleavage was 0.08.

Q: For GGCAGAGCUCAAAAGAACGUGGCACAGUGGCUGUGGCUAGACUGCC, which self-cleavage is on record?
A: The self-cleavage was 0.04.

Q: Which self-cleavage does the source give for GGCAGAGCUCAAAAUAGCGUGGCCACGUGGCUGUGGCUAGACUUCC here?
A: The self-cleavage was 0.02.

Q: With GGCAGAGCUCAAAAUAGCGUGGCAAAGUGGCUGUGGCUAGACUGGC as the variant, how does the self-cleavage read?
A: The self-cleavage was 0.05.

Q: For GGCAGAGCUCAAAAUAGCGUGGCAAAGUGACUGUGGCUAGACUGCC, which self-cleavage is on record?
A: The self-cleavage was 0.16.

Q: Which self-cleavage does the source give for GGCAGAGCUCAAAACAGAGUGGCAAAGUGGAUGUGGCUAGGCUGCC here?
A: Its self-cleavage is 0.01.

Q: With GGCAGAGCUCAAAACAGAUUUGCAAAGUGGCUGUGGGUAGACUGCC as the variant, how does the self-cleavage read?
A: The self-cleavage was 0.03.

Q: With GGCAGAGCUCAAAACAGAGUGGCAAACUGGCCGUGGCUAGACUGCC as the variant, how does the self-cleavage read?
A: The self-cleavage was 0.06.

Q: Which self-cleavage does the source give for GGCAGAGCUCAAAACAGAGGGGCAAAGUGGCUGUGGCUAGACUGCC here?
A: The self-cleavage was 0.03.

Q: With GGCAGAGCUCAAAACAGGGUGGCAUAGUGGCUGGGGCUUGUCUGCC as the variant, how does the self-cleavage read?
A: The self-cleavage was 0.08.

Q: With GGCAGAGCUCAAAACAGGGUGGGAUAGUAGCUGUGGCGAGACGGCC as the variant, how does the self-cleavage read?
A: Its self-cleavage is 0.04.

Q: With GGCAGAGCUCAAAACAGGGUGUCAAAGUGGCUGUGGCUAGACUGCC as the variant, how does the self-cleavage read?
A: The self-cleavage was 0.06.

Q: For GGCAGAGCUCAAAACAGGGUGGCAAAGUGGCUUUGGCUAGAUUGCC, which self-cleavage is on record?
A: The self-cleavage was 0.02.

Q: Which self-cleavage does the source give for GGCAGAGCUCAAAACAGGGUGGCAAAGUGGCUGUGUCUGGACUGCC here?
A: Its self-cleavage is 0.06.

Q: With GGCAGAGCUCAAAACAGGGUGGCAAAGGGGCUGUGGCUAGACCGCU as the variant, how does the self-cleavage read?
A: The self-cleavage was 0.01.

Q: With GGCAGAGCUCAAAACAGUGUGGCAAAGUGGCUGUCGCUGGACUGCC as the variant, how does the self-cleavage read?
A: The self-cleavage was 0.14.

— the RNAGym collection of RNA variant scans (doi:10.7554/elife.90254)
